Measurements: PubChem BioAssay AID624296 (National Center for Advancing Translational Sciences (NCATS), 2012)
The campaign covered roughly 350,000 compounds. About 9,900 (2.8%) were called active. The inconclusive results got no clear call from the source; some entries with a clear call stand among them for comparison. Calls come from the whole dose curve; as a rule, active = well fitted activation curve with a large enough effect; inconclusive = small, poorly fitted or top-dose-only effect; inactive = no such curve, though single readings can be large or run the other way. Potencies of inconclusive entries are left out as doubtful fits.

assay: A quantitative high throughput screen for small molecules that induce DNA re-replication in MCF 10a normal breast cells.; note: nearly all actives have a fitted effect of over 50% in size; for activity, positive = re-replication: % of control where 0% means no effect; conditions: MCF 10A DNA re-replication, Hoechst nuclear intensity, 48 h; activity, positive = re-replication: at 46.1 µM (top of the series)
Potency is the fitted concentration of half-maximal effect; tags give direction and shape of the fitted curve.

SMILES	Potency	activity, positive = re-replication
CCOC(=O)c1ccc(NC(=O)Nc2cc(C)on2)cc1	inconclusive [activator, partial curve, poor fit]	
O=C(Nc1cccc(F)c1)C1CCN(S(=O)(=O)c2cccc3nonc23)CC1	inconclusive [activator, single point]	
O=C(Nc1ccc2c(c1)C(=O)OC2)c1ccccc1Cl	inactive	
CO/N=C1\CCCc2c(C(=O)NN)sc(SC)c21	active: 16.4 µM	
O=C(CN(c1ccc2c(c1)OCCO2)S(=O)(=O)c1ccccc1)NCc1ccc(Cl)cc1	inconclusive [activator, single point]	
C=CCn1c(N)c(C(=O)NCC2CCCO2)c2nc3ccccc3nc21 (stereo not given)	inactive	
COc1cc(C2=NOC(C(=O)NCc3ccco3)C2)cc(OC)c1OC (stereo not given)	inconclusive [activator, single point]	
CN1CCN(S(=O)(=O)c2ccc(NC(=S)NC(=O)c3ccc(Cl)cc3)cc2)CC1	inconclusive [activator, partial curve, poor fit]	
Cc1cc(C)cc(C(=O)NC2C(=O)N3C(C(=O)O)=C(CSc4nnc(C)s4)CSC23)c1 (stereo not given)	inconclusive [activator, single point]	
COc1cc(-c2noc(C)c2/C=C/c2ccc(OC(C)=O)cc2)cc(OC)c1OC		inconclusive: 216% [activator]
Cc1cccc(C(=O)NC(=S)NNC(=O)c2cccs2)c1	inactive	
O=C1/C(=C/N(C(=O)c2ccco2)c2ccc(Br)cc2)Sc2ccccc21	inconclusive [activator, single point]	
CCc1nccn1C(=O)c1cnn2c(C(F)F)cc(-c3ccc(C)cc3)nc12	active: 18.4 µM	
CC(C)(C)c1ccc(Cn2ccc(-c3ccc4c(c3)OCO4)n2)cc1	inconclusive [activator, partial curve, poor fit]	
O=Nc1c(O)n(Cc2ccc(Cl)cc2Cl)c2ccccc12	inconclusive [activator, single point]	
C=CCn1c(SCC(=O)NCC2CCCO2)nc2c([nH]c3ccccc32)c1=O (stereo not given)	inconclusive [activator, full curve, poor fit]	
S=c1[nH]nc(COc2ccccc2)n1/N=C/c1ccccc1Br	inactive	
O=C(Nc1ccc2ccccc2n1)c1ccccc1Cl	inactive	
Cc1ccc(S(=O)(=O)N2CCC(C(=O)N3CCc4ccccc43)CC2)cc1C	inactive	
CCn1c2ccccc2c2cc(NC(=O)COC(=O)c3cc(S(N)(=O)=O)c(Cl)cc3Cl)ccc21	inconclusive [activator, single point]	
CCCCNC(=S)Nc1ccc([N+](=O)[O-])cc1	active: 18.4 µM	
CC1(c2nnc(Cc3ccccc3)o2)CC(c2ccc([N+](=O)[O-])cc2)=NO1 (stereo not given)	inconclusive [activator, full curve, poor fit]	
CCc1ccc(N2CC(C(=O)Nc3cc(C)ccc3F)CC2=O)cc1 (stereo not given)	inconclusive [activator, single point]	
CCN(CCCNC(=O)CNC(=O)c1nn(-c2ccc(OC)c(OC)c2)c(=O)c2ccccc12)c1ccccc1	inactive	

SMILES	Potency	activity, positive = re-replication
CN(C)c1ccc(/C=C2\CCCc3c2nc2ccccc2c3C(=O)O)cc1	active: 18.4 µM	
O=C(NC(=S)Nc1ccccc1N1CCCCC1)c1ccco1	inconclusive [activator, single point]	
COc1cc(C(=O)N(C)CCOc2ccccc2)ccc1OCC(=O)Nc1cccc(C(F)(F)F)c1	inconclusive [activator, single point]	
Cc1cc2c(cc1C)C(=O)C(Br)=C(N)C2=O	inconclusive [activator, partial curve]	
COc1cc2c3nnc(-c4ccc(F)cc4)c-3cn(Cc3cccc(F)c3)c2cc1OC	inconclusive [activator, partial curve, poor fit]	
COc1ccc(-c2cc(C)no2)cc1S(=O)(=O)N(C)c1ccc(C)c(C)c1	inconclusive [activator, single point]	
N#Cc1cccc(Nc2c3c(nc4ccccc24)CCC3)c1	inconclusive [activator, single point]	
COc1ccc(OCC(=O)Nc2ccc(NC(=O)c3cccs3)cc2)cc1	inconclusive [activator, partial curve, poor fit]	
O=C(Cc1ccc(Nc2nc3ccc(Br)cc3[nH]2)cc1)NCCc1cccs1	inconclusive [activator, single point]	
CC(C)(C)Nc1nc(Cl)nc(Nc2ccccc2)n1	inactive	
COc1ccc([C@H]2CC(=O)C=C(c3ccc(OC)c(OC)c3)C2)cc1	active: 9.2 µM	
O=C(CSc1ccc(C(F)(F)F)cc1[N+](=O)[O-])Nc1ccccc1	inconclusive [activator, single point]	
c1ccc(OCc2nc(-c3ccccc3)no2)cc1	inconclusive [activator, partial curve, poor fit]	
O=C1CN(S(=O)(=O)c2cc(C(=O)O)ccc2Cl)c2ccccc2N1	inconclusive [activator, partial curve, poor fit]	
O=C(O)c1cc2c([nH]c1=O)CCCC2	inactive	
COc1ccc(N(C(=O)c2ccco2)C(C(=O)NC2CCCC2)c2cc(OC)c(OC)c(OC)c2)cc1 (stereo not given)	inconclusive [activator, single point]	
CN1C[C@@H]2[C@@H]3C(=O)N(C)C(=O)[C@@H]3[C@](C)(C1=O)N2C(=O)c1ccc(Cl)c(Cl)c1	inactive	
C[C@H](CO)N1C[C@H](C)[C@@H](CN(C)CC2CCCCC2)Oc2c(NS(=O)(=O)c3cn(C)cn3)cccc2C1=O	inconclusive [activator, full curve, poor fit]	
O=C1/C(=C/c2cccs2)SC(=S)N1CCCC(=O)N(CCO)c1ccccc1	inconclusive [activator, single point]	
CC(C)Cn1c(=O)c2c(nc3n2CC(C)CN3Cc2ccccc2)n(C)c1=O (stereo not given)	inactive	
O=C(CCCCC(=O)OCC1COCO1)OCC1COCO1 (stereo not given)	inactive	
O=C1C2C3C=CC(C3)C2C(=O)N1/N=C/c1cn(Cc2ccc(F)cc2)c2ccccc12 (stereo not given)	inconclusive [activator, full curve, poor fit]	
Cc1ccc2c(c1)C(O)(CC(=O)/C=C/C=C/c1ccccc1)C(=O)N2 (stereo not given)	inconclusive [activator, single point]	
Cc1ccccc1S(=O)(=O)Nc1ncnc2scc(-c3ccccc3)c12	inconclusive [activator, single point]	

SMILES	Potency	activity, positive = re-replication
C=CCn1c(SCC(=O)NNC(=S)Nc2ccccc2)nnc1-c1ccccc1	inactive	
Cc1cccc(OCC(=O)OCC(=O)NCC2CCCO2)c1C (stereo not given)	inactive	
Cc1ccc(C)c(OCC(=O)Nc2nonc2NC(=O)COc2cc(C)ccc2C)c1	inconclusive [activator, single point]	
Cc1cc(C)cc(NC(=O)Nc2ccc(NC(=O)c3ccccc3O)cc2)c1	active: 18.4 µM	
Nc1cc(Nc2ccc(Br)cc2)nc(N)n1	inactive	
Cc1cc(C)n(-c2ncnc3c2oc2ccccc23)n1	inconclusive [activator, single point]	
CCCCCOC(=O)C1=C(C)NC(=O)NC1c1ccc([N+](=O)[O-])cc1 (stereo not given)	inconclusive [activator, partial curve, poor fit]	
CCCCCN1CC(O)=C(c2nc3ccccc3[nH]2)C1=N	inconclusive [activator, partial curve, poor fit]	
Cc1ccccc1NC(=O)Cn1nnc2sc3c(c2c1=O)CC(C)(C)OC3	inactive	
CC(C)COc1cccc(C(=O)N(CC(=O)Nc2ccccc2C(F)(F)F)Cc2ccco2)c1	inactive	
CCOC(=O)c1c(NC(=O)CSc2nncs2)sc(C)c1-c1ccccc1	active: 7.31 µM	
O=[N+]([O-])C(=C1NCCN1)C(Cl)=C(Cl)Cl	inactive	
Cc1cccc(CNc2ncnc3ccc(-c4ccccc4Cl)cc23)c1	inconclusive [activator, partial curve, poor fit]	
CCOC(=O)c1sc(NC(=O)CN(CC(C)C)CC(C)C)c(C(=O)OCC)c1C	inconclusive [activator, partial curve]	
O=C(CSC1=NS(=O)(=O)c2ccccc21)Nc1ccccc1	inconclusive [activator, single point]	
CC(=O)N[C@@H](Cc1c[nH]c2ccccc12)C(=O)NC1CC1	inconclusive [activator, single point]	
Cc1ccc(S(=O)(=O)c2cc3c(=O)n4ccccc4nc3n(CCc3ccccc3)c2=N)cc1	inconclusive [activator, full curve]	
CCOc1ccc(NC(=O)Cn2sc3nc(C)cc(C)c3c2=O)cc1	inactive	
CCN(CC)CC(O)COCCC12CC3CC(CC(C3)C1)C2 (stereo not given)	inconclusive [activator, single point]	
CCN(C(=S)Nc1ccccc1F)C1CCCCC1	inactive	
CSc1ccc(C(=O)N2CCc3ccc(NC(=O)c4ccccn4)cc3C2)cc1	inconclusive [activator, single point]	
Cc1ccc2cccc(OCC(=O)Nc3cccc(S(=O)(=O)N4CCCC4)c3)c2n1	inconclusive [activator, single point]	
